This is an account of results in article PMC4336329 (PLoS ONE, 2015).

Screen size: about 310,000 compounds; about 14,000 (4.5%) showed an effect of 50% or more. The effect is printed as a negative number. Some of the results follow.
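Further: peak tail current of the secondary pulse compared with the same well before compound.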

The target of this test is human ether-à-go-go-related gene (hERG) potassium channel (human, UniProt Q12809). As to the kind of experiment: primary screen, population patch clamp on CHO cells stably expressing hERG.
human ether-à-go-go-related gene (hERG) potassium channel, sequence (Q12809 whole entry, looked up): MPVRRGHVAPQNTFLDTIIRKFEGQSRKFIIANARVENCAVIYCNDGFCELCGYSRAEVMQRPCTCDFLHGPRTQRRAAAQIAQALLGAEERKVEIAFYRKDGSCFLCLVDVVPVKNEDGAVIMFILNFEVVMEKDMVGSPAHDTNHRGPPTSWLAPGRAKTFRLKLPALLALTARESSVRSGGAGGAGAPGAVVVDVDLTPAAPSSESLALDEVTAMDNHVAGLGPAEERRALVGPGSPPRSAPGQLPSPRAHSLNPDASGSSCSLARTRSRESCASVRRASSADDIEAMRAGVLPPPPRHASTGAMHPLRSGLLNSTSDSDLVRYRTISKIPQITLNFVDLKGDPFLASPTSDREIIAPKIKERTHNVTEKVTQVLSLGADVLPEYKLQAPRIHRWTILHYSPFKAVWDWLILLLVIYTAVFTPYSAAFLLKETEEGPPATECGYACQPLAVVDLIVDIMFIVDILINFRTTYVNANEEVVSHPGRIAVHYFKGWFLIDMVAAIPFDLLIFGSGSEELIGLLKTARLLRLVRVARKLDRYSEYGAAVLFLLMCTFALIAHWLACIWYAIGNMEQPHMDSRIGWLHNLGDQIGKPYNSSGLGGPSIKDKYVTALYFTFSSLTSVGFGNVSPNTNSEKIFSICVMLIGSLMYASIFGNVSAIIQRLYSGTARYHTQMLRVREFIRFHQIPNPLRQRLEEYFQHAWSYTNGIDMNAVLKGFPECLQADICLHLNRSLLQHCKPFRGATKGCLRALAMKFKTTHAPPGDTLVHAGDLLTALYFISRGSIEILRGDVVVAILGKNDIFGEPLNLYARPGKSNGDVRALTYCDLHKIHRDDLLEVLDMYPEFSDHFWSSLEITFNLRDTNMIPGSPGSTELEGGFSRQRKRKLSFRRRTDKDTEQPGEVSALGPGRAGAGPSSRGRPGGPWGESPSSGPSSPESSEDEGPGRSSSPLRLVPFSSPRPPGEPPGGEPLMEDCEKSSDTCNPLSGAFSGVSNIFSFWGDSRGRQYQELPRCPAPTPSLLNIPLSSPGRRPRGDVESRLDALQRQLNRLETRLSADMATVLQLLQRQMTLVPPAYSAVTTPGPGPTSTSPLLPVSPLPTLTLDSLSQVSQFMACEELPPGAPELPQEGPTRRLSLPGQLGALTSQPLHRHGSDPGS
With `COc1ccc(C(=NN)c2ccc(OC)cc2)cc1`, the “hERG current change (%, negative = inhibition) at 10uM” value was 10.5%.

For `CC(C)OCCCN1C(=O)c2[nH]nc(-c3ccccc3O)c2C1c1cccc(Cl)c1` (stereo not drawn), the “hERG current change (%, negative = inhibition) at 10uM” value is -25.7%. Next, `Cc1noc(C)c1COc1ccccc1C(=O)NCc1ccco1`: -5.55%; `O=C(C1CCN(S(=O)(=O)c2cccc3cccnc23)CC1)N1CCn2c1nc1ccccc12`: -9.66%. Turning to `CCN(CC)c1ncccc1C(=O)NCc1cccs1`, the “hERG current change (%, negative = inhibition) at 10uM” value came out at 0.576%. The result for `CCn1c(SCC(=O)NC(=O)NCc2ccco2)nc2sc(C)c(C)c2c1=O` reads 12.5%. The result for `N#Cc1nc(COc2ccccc2)oc1NCCCn1ccnc1` reads -50%. Next, `O=C(NCc1cccc(Cl)c1)c1ccc2c(c1)SC1=NS(=O)(=O)CCN12`: -5.52%. Turning to `COC(=O)C1=Nc2ccccc2/C1=C\c1c(O)n(-c2ccc(Br)cc2)c(=O)[nH]c1=O`, the “hERG current change (%, negative = inhibition) at 10uM” value was found to be 18.4%. The result for `CCOC(=O)C[C@H]1c2ccc(C(F)(F)F)cc2S(=O)(=O)N1C(C)(C)C` reads 4.31%; that for `COc1cc(C2C(=O)N(C3CCCC3)CC(=O)N2Cc2ccco2)ccc1OC(C)C` (stereo not drawn), -27.6%; that for `CC(C)c1nccn1S(=O)(=O)c1cccc([N+](=O)[O-])c1`, 0.907%. In the case of `COc1ccc(CC(=O)Nc2cccc(C(=O)Nc3ccccc3C(=O)O)c2)cc1OC`, the “hERG current change (%, negative = inhibition) at 10uM” value was 1.48%.

Turning to `Cc1ccc(C(C)(C)C)cc1S(=O)(=O)Nc1ncnc2sccc12`, the “hERG current change (%, negative = inhibition) at 10uM” value is recorded as 12.2%.

Regarding `COC(=O)C(NC(=O)CSc1nc(N)cc(=O)[nH]1)c1ccccc1` (stereo not drawn), the “hERG current change (%, negative = inhibition) at 10uM” value is 18.3%. For `CCCS(=O)(=O)N1CCCC(C(=O)NCCN(CC)CC)C1` (stereo not drawn), the “hERG current change (%, negative = inhibition) at 10uM” value was 22.7%.

With `O=C(COC(=O)CCCN1C(=O)c2cccc3cccc(c23)C1=O)Nc1cccc(C(F)(F)F)c1`, the “hERG current change (%, negative = inhibition) at 10uM” value came out at 3.65%.

For the compound `O=C(O)COc1c(Cl)cc(/C=C2\NC(=O)NC2=O)cc1Br`, the “hERG current change (%, negative = inhibition) at 10uM” value turned out to be 24.1%. Next, `OCc1nc2ccccc2n1CCCOc1ccc(Br)cc1`: -36.8%; `COc1ccc(CNC(=O)C2CCN(S(=O)(=O)c3ccc4c(c3)NC(=O)C(C)S4)CC2)cc1` (stereo not drawn): -9.31%; `Cc1ccc(Nc2c(-c3ccccc3)nc3cnccn23)cc1`: -1.06%.

On to `COc1ccc(CNC(=O)Cc2cccs2)cc1`, for which the “hERG current change (%, negative = inhibition) at 10uM” value was determined as 15%. Next, `COc1ccc(CCNC(=O)c2cc3c(cc2Cl)N2CCCCCC2=NS3(=O)=O)cc1`: -31.5%; `Cc1cc2ccccc2c(=O)n1CC(=O)NCC(=O)N1CCCC(C)C1` (stereo not drawn): 11.9%.
